Reference: the supplement of paper PMC3334620
In all, about 33,000 sequences were measured (“E-score (-0.5 to 0.5)”: median about -0.013, highest 2% from about 0.3 on). Some of the results follow.

molecular target: T1, Msn1 (UniProt P22148); test: PBM E-score (8-mer binding enrichment) (E-score (-0.5 to 0.5)); higher = stronger / more preferred TF binding; most listed sequences are background and not binding sites; conditions: protein concentration: 200 nM; construct: GST-full length
T1 sequence: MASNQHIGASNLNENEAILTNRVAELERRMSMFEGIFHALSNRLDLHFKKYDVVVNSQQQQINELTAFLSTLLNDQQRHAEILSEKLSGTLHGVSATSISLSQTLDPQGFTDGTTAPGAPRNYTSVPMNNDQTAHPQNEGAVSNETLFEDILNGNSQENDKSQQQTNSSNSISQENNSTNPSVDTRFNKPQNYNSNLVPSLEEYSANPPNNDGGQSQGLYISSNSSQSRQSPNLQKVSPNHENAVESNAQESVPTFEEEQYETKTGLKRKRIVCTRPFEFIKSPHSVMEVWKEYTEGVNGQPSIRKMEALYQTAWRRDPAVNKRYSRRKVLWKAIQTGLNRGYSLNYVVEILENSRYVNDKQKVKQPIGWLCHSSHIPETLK
Summary of the method: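 Full-length yeast transcription factors or their DNA-binding domains, GST-tagged and expressed with PURExpress, were applied at about 100-200 nM to universal all-10-mer Agilent arrays. These arrays had been made double-stranded by primer extension on fresh or once-stripped slides. Detection used fluorescent anti-GST, normalisation used masliner, and E-scores for ungapped eight-base words pooled with reverse complements came from the Universal PBM Analysis Suite.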

Row | Sequence | PBM E-score
1 | CGACCAGC | -0.082
2 | ACATTATC | 0.167
3 | CTAGGCAG | -0.0991
4 | AATTCCTA | 0.0587
5 | ATCCTCTC | -0.18
6 | GGGAGGCA | -0.268
7 | GTCGCAAA | 0.0731
8 | CGTACCCC | -0.0691
9 | ACAAAGAT | 0.259
10 | AGGCTGTA | 0.0234
11 | AGTCATAC | 0.14
12 | ACCCTACG | -0.173
13 | ACCGGGAT | -0.122
14 | CGTTCCGA | 0.13
15 | GCACATCC | -0.0478
16 | CGCTCCTC | -0.346
17 | TAACCAGA | 0.083
18 | ACTGCCAT | 0.0642
19 | ACAATATA | 0.165
20 | CTATGCAA | 0.0505
21 | CTCCAGTA | 0.057
22 | ATGTACAA | 0.36
23 | ACGGTACC | -0.004
24 | ACCTAGGC | -0.235
25 | CATCAGTC | 0.0092

Row | Sequence | PBM E-score
26 | ACGTGGAT | -0.102
27 | ACGCAGTG | -0.199
28 | ACCCCAAC | -0.101
29 | CCGAATAG | 0.0613
30 | CTCTAAGC | 0.0961
31 | GCTGTGTA | 0.0153
32 | ACAAAGAC | 0.289
33 | CATAGGGA | 0.0296
34 | CCCCCTCA | -0.36
35 | ACTCTGCT | -0.171
36 | CCACACTC | -0.0712
37 | ATGCGAGC | -0.0795
38 | ATACAAAA | 0.2
39 | ACACTTTC | 0.0597
40 | GCACGTAC | -0.121
41 | AAATTGAC | 0.079
42 | CCTTTTAG | 0.0539
43 | ATATATAA | 0.162
44 | ATGTCTCA | 0.446
45 | CCCGTATA | 0.0258
46 | AGTTACTC | -0.011
47 | ATATTTTG | 0.176
48 | ACTGTGTA | 0.0465
49 | ACGCTATA | -0.107
50 | TCCTACGA | -0.0195

Row | Sequence | PBM E-score
51 | TTCCCGAA | 0.085
52 | AGTGGGGA | -0.185
53 | AAGCTCTC | -0.109
54 | CCGCGAGA | -0.0866
55 | CGAGTCAC | -0.127
56 | TCGTATCA | 0.102
57 | GAGCGCAA | -0.136
58 | GCGGGTTA | -0.0146
59 | GAAGGATA | -0.142
60 | ACAGGCGC | -0.136
61 | AGCAGAAG | -0.0203
62 | CGTTTGAC | 0.12
63 | AAATTATC | 0.234
64 | GACGTAAC | 0.142
65 | AGATTGAC | -0.198
66 | GTGTAGGA | 0.0397
67 | ATGATCGG | 0.0453
68 | ACGGTTAA | -0.117
69 | GTGTATGA | 0.178
70 | ATTTATGA | 0.206
71 | ATCCTTTA | -0.0459
72 | AGAGGTAT | 0.111
73 | CACGCGAA | 0.0566
74 | AATCTGCA | -0.0868
75 | CACAAGTG | -0.247

Row | Sequence | PBM E-score
76 | CCAGCACA | -0.054
77 | CGCTCCGC | -0.0704
78 | TAGGCTAA | -0.167
79 | GTAGTGAA | 0.0152
80 | TCTTTGAA | 0.00896
81 | CACTATCA | -0.0646
82 | GAACAAAA | 0.287
83 | AACCAAAA | 0.142
84 | CAGTTCAA | -0.0355
85 | ACCCAGGA | -0.00044
86 | ATTTCTAG | 0.0619
87 | CCCACATA | -0.0186
88 | GAACGGCA | -0.0091
89 | CAGCACGA | -0.102
90 | CACGTAAC | -0.0236
91 | GCCGCTAC | -0.0262
92 | AGTATGTG | 0.0347
93 | AAGCTGTG | 0.0979
94 | ATGAGCTA | 0.00502
95 | GGGATTTA | 0.0846
96 | GTTAAATA | -0.0463
97 | ACCATCAT | -0.0869
98 | ATCAGCTC | 0.00283
99 | ATGTAGTA | 0.245
100 | GCACTGAA | -0.204

Row | Sequence | PBM E-score
101 | TAAGTCTA | -0.122
102 | CTAACCCA | 0.024
103 | TGTTGAAA | 0.119
104 | CTTTAGGA | 0.0139
105 | CGGCCCCC | -0.371
106 | TGTGAGAA | -0.0248
107 | ACGGGATC | -0.0691
108 | TCCACCCA | -0.196
109 | GAGAGTCA | -0.0417
110 | AGTCCCAA | 0.17
111 | CGGAGTTC | 0.0942
112 | AATTGTGA | 0.215
113 | AACCTTTG | 0.0323
114 | GGTTAACC | -0.174
115 | AAGCGTCA | -0.0802
116 | GGCCGCCC | -0.198
117 | CGATTCCA | -0.073
118 | AACATTCC | -0.0175
119 | CGAGGTTC | -0.0645
120 | AGGTTACC | 0.00639
121 | ATGAAACC | 0.0454
122 | AATCCTAC | -0.195
123 | ATTCGGCA | -0.107
124 | CATCAAGC | -0.0178
125 | AGTCCAGC | -0.0609

Row | Sequence | PBM E-score
126 | AGTCTTAA | 0.11
127 | CCATAACA | 0.0696
128 | ATTGGGTC | -0.0532
129 | GTTGAGTA | 0.121
130 | ACCGCTCG | -0.201
131 | CTAGCTAA | -0.126
132 | ATTTCTAA | -0.147
133 | CCCAGAAC | -0.00938
134 | AGCGCGAC | 0.0772
135 | GAAGGGTC | -0.334
136 | GCCCTTAA | -0.0897
137 | CGACATCA | 0.125
138 | AGCGGCGC | 0.0394
139 | AGATAGTA | 0.215
140 | GGGAGCCA | -0.287
141 | CACTCGTC | -0.0484
142 | AGACATAT | 0.47
143 | GTGATCCA | -0.0635
144 | GAACTACA | -0.0933
145 | AAAGCCGG | 0.0349
146 | CCCGACGG | -0.218
147 | ATAAGTTC | 0.111
148 | CATCACAA | 0.0752
149 | TATCGCCA | -0.0488
150 | ACAAGTCT | 0.198

Row | Sequence | PBM E-score
151 | TATCGACA | 0.203
152 | TACGTGAA | 0.0139
153 | CTAAGGGA | 0.0645
154 | AGCGGTCC | -0.0781
155 | AATGCCTG | -0.0472
156 | CTACTCAG | -0.206
157 | GCGGCCTA | -0.152
158 | AACAAGAG | -0.224
159 | CATGCCAC | -0.149
160 | AAAATTAA | 0.187
161 | CTTTCACA | 0.196
162 | GAGACGGC | -0.0338
163 | CGGCACCA | 0.0388
164 | CTATGTAC | 0.189
165 | GGATCAGA | -0.252
166 | AATACCAA | 0.0722
167 | GATTAAGA | 0.122
168 | AACTAATC | -0.109
169 | AATATATC | 0.127
170 | ATTACCAC | 0.0752
171 | AGGAAAAT | -0.0421
172 | AACTGACA | 0.15
